# PubChem BioAssay AID1240 (Sanford-Burnham Center for Chemical Genomics, 2008)
# In all, about 50,000 compounds went through this assay and about 800 (1.6%) showed an effect of 50% or more. The list shows a part of the results.
# Biological target: Bcl-2-like protein 10 (Homo sapiens) (UniProt Q9HD36)
# Experiment: TR3 peptide-Bcl-B binding displacers, biochemical primary FP assay, phenotype converters (AID 1240);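 note: 0% = Bcl-B with tracer peptide and DMSO and 100% = tracer peptide lacking Bcl-B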
# Details: GST-Bcl-B / FITC-TR3 peptide fluorescence polarization; stronger effect = higher value; compound at 3.75 mg/L
# UniProt Q9HD36, sequence (Q9HD36 whole entry, looked up): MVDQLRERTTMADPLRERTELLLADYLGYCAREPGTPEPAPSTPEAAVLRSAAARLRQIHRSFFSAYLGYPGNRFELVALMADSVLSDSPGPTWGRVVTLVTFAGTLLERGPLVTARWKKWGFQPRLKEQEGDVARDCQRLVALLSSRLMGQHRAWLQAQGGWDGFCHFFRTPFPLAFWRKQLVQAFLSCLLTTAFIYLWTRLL
row,SMILES,displacement [%]
1,CCOC(=O)C(NS(=O)(=O)c1ccc2c(c1)Cc1ccccc1-2)C(O)c1ccccc1 (stereo unspecified),-1.6
2,CCN(CC)CCN1C(=O)c2ccccc2NC1c1cccc(F)c1 (stereo unspecified),10.7
3,COc1cc(NC(=O)COc2ccc(Br)cc2)cc(OC)c1,0
4,COc1ccc2oc(=O)c(C(=O)Nc3cc(Cl)ccc3OC)cc2c1,5.9
5,COc1ccc(NC(=O)COc2ccc(Cl)cc2Cl)c([N+](=O)[O-])c1,-12.6
6,O=C(CCCCCCCCC(=O)N/N=C/C1CC=CCC1)N/N=C/C1CC=CCC1 (stereo unspecified),5.6
7,CC(=O)COc1ccc2c(c1)oc(=O)c1ccccc12,10
8,O=C(N/N=C/c1ccc(F)cc1)c1cc(Cl)cc(Cl)c1O,2.2
9,O=C(Nc1cccc(NC(=O)c2ccccc2Cl)c1)c1ccc2c(c1)OCCO2,-2.7
10,COc1ccc(S(=O)(=O)N(CC(=O)NCc2ccco2)c2cc(C)cc(C)c2)cc1OC,-3
11,COc1cc(C(=O)NCc2ccncc2)cc(OC)c1OC,-4
12,Cn1c(=O)c(-c2nc3ccccc3[nH]2)c(O)c2ccccc21,4.4
13,Cc1ccc(-c2csc(NC(=O)c3sc4cc(C)ccc4c3Cl)n2)cc1,-6.8
14,O=C(N/C(=C\c1cccc([N+](=O)[O-])c1)C(=O)N1CCOCC1)c1cccs1,-6.6
15,Cc1ccc(CN2CCN(C3CCCC3)CC2)cc1,-13.5
16,O=C(NCc1ccccc1Cl)c1ccccc1I,4.5
17,CCc1c(C)nc2cc(-c3cccs3)[nH]n2c1=O,6.3
18,COc1ccc(C(=O)N2CCN(Cc3cccc(Cl)c3)CC2)cc1OC,-11.5
19,CCCOc1ccc(C(=O)Nc2ccc(Cl)cn2)cc1,13.2
20,COc1ccc(NC(=O)CCc2ccccc2)cc1,3.9
21,Cc1ccccc1N1C(=O)/C(=C\c2ccc(F)cc2)SC1=S,10.5
22,C/C(=N\NC(=O)c1cc(C)[nH]n1)c1ccc(Br)cc1,-6
23,O=C(Nc1ccc(Cl)cc1)c1cc(Cl)ccc1[N+](=O)[O-],7.1

row,SMILES,displacement [%]
1,COc1ccccc1NC(=O)CN(c1ccc(Cl)cc1Cl)S(=O)(=O)c1ccccc1,-17.6
2,COc1ccc(-c2nnc(NC(=O)c3cccc4ccccc34)s2)cc1,6.1
3,COc1cccc(-n2c(O)c(C=Nc3ccc(F)cc3)c(=O)[nH]c2=O)c1,7.3
4,Cc1ccc(S(=O)(=O)Nc2ccc(O)c(S(=O)(=O)c3ccc(C)cc3)c2)cc1,3.8
5,CCCCn1c(/N=C/c2ccc3c(c2)OCO3)nc2ccccc21,5.4
6,CCC(=Nc1cc(Cl)ccc1O)c1c(C(F)(F)F)[nH]n(-c2nc3ccccc3s2)c1=O,-6
7,CCOc1ccccc1C(=O)Nc1ccc(N2CCOCC2)cc1,3.2
8,O=C(O)CC1S/C(=N/N=C/c2ccccc2)N(c2ccc(O)cc2)C1=O (stereo unspecified),9
9,COc1ccc(N=Cc2ccc(O)c(OC)c2)cc1,3.3
10,O=C(CCC(=O)N/N=C/c1cc(Br)ccc1O)N/N=C\c1cc(Br)ccc1O,7.8
11,O=C(NCc1ccco1)c1ccc(Cl)c([N+](=O)[O-])c1,0.5
12,CCN(CC)c1ccc(/C=C2/SC(=O)N(CNc3ccc(OC)c(Cl)c3)C2=O)cc1,-2.5
13,CCOc1ccc(N(CC(=O)NCCc2ccccc2)S(=O)(=O)c2ccc(SC)cc2)cc1,5.6
14,Nc1nonc1-c1nc2ccccc2n1Cc1ccc(F)cc1,0.6
15,O=C(c1nn2c(C(F)(F)F)cc(-c3ccccc3)nc2c1Br)N1CCCCC1,-8
16,CCOC(=O)c1c(N)sc(C(=O)Nc2cccc(C(F)(F)F)c2)c1C,-0.7
17,Cc1[nH]n(-c2ccc([N+](=O)[O-])cc2)c(=O)c1C=NCc1ccc(Cl)cc1,11.8
18,Cc1ccc(OCC(=O)N2CCC(Cc3ccccc3)CC2)c(Br)c1,-6
19,O=C(NC(NC(=S)Nc1ccc(Cl)c(Cl)c1)C(Cl)(Cl)Cl)c1ccccc1F (stereo unspecified),0.6
20,CCOc1c(/C=C2\C(=O)NN(c3ccccc3)C2=O)cccc1OC,11.9
21,CC1(C)Cc2cc3c(=O)n(-c4ccccc4)c(=S)[nH]c3nc2CO1,-2.1
22,CCOC(=O)C1=C(C)NC2=C(C(=O)c3ccccc32)C1c1cccs1 (stereo unspecified),-2.1
23,CCCC(=O)NC(c1cccc([N+](=O)[O-])c1)c1c(O)ccc2ccccc12 (stereo unspecified),8.4

row,SMILES,displacement [%]
1,Cc1nnc(N/N=C/c2ccccc2Br)[nH]c1=O,-14.4
2,COC(=O)CN(c1cccc(OC)c1)S(=O)(=O)c1ccccc1,-9.7
3,Cc1ccccc1NS(=O)(=O)c1cccc(S(=O)(=O)c2ccc(Cl)cc2)c1,-10.2
4,CCOc1ccccc1NC(=O)CN(c1ccc(OC)cc1OC)S(C)(=O)=O,8.7
5,COc1ccc(C(=O)Nc2cccc(NC(=O)c3ccc(F)cc3)c2)cc1Br,2.2
6,COc1ccc(C(=O)NC(N2CCOCC2)C(Cl)(Cl)Cl)cc1OC (stereo unspecified),12.2
7,C/C(=N/NC(=O)c1ccc(Br)cc1)c1ccc(Cl)cc1,3.9
8,O=C1CC(NC2CCCC2)C(=O)N1c1ccc(Cl)cc1 (stereo unspecified),-3.6
9,Cc1ccc(NC(=O)CC2Nc3cc(C)c(C)cc3NC2=O)cc1 (stereo unspecified),-18.7
10,O=C(COc1ccccc1[N+](=O)[O-])Nc1ccc(Cc2ccncc2)cc1,14
11,Nc1nnc(CC(=O)N/N=C/c2ccc(OCc3ccc([N+](=O)[O-])cc3)cc2)s1,3.9
12,O=C(Cc1c(O)c2ccccc2[nH]c1=O)NCCc1ccccc1,0.4
13,COc1cccc(OC)c1C(=O)Nc1ncn[nH]1,14.8
14,CC(C)(C)c1ccc(OCCOc2ccc(Cl)cc2/C=N/n2cnnc2)cc1,1.2
15,CC(=O)C1=C(c2ccccc2)C(=O)c2ccccc2C1=O,-4.7
16,O=C(CC12CC3CC(CC(C3)C1)C2)NC1CCCCC1,10.3
17,O=C(/C=C/c1ccccc1)NC(=S)Nc1ccccc1,17.5
18,Oc1ccc2[nH]c(-c3ccccc3)nc2c1CN1CCCCC1,-25.1
19,COc1ccc(Nc2ncnc3c2cnn3-c2ccccc2)cc1,-0.9
20,O=C1NC(=O)N(c2ccc(Br)cc2)C(=O)/C1=C/c1cccs1,-42.8
21,Clc1ccccc1-c1nc(N2CCCC2)c2ccccc2n1,17.9
22,Cc1c(NC(=S)NC(=O)c2ccc(Cl)cc2)cccc1-c1nc2ncccc2o1,40.4
23,Cc1cc(C)nc(SCC(=O)N2c3ccccc3Sc3ccc(Cl)cc32)n1,7.9

row,SMILES,displacement [%]
1,CC(C)(C)c1ccc(S(=O)(=O)Nc2nc3ccccc3s2)cc1,-4.9
2,Cc1ccccc1NC(=O)C(=O)NNC(=O)COc1ccc(Cl)cc1,-6.4
3,Cc1ccc(NC(=S)NN2CCN(C)CC2)cc1,5.2
4,CCc1cc(=O)oc2cc(OC/C=C/c3ccccc3)ccc12,7.4
5,CN1CCN(CCCC(=O)c2ccc(F)cc2)CC1,-1.1
6,COc1ccc(C2/C(=C(/O)c3ccc(Br)cc3)C(=O)C(=O)N2CCc2ccccc2)cc1OC (stereo unspecified),-0.7
7,Cc1nc2ccc(Br)cn2c1C(=O)NN=C1CCCCCC1,-44.3
8,O=Cc1ccc(-c2ccccc2OC(F)(F)F)o1,-9.9
9,O=C(COc1ccc(Cl)cc1Br)N/N=C/c1cc([N+](=O)[O-])ccc1O,14.8
10,C/C(Nc1ccc(C)cc1)=C(\C#N)C(=O)NC1CCCCC1,-0.6
11,COc1ccc(OC)c(NC(=O)/C=C/c2ccc(OC)c(OC)c2)c1,5.2
12,CC(C)(NO)/C(=N\O)c1ccc(F)cc1,15.1
13,CCOC(=O)C1=C(O)/C(=C/c2ccc(N(C)C)cc2)SC1=Nc1ccc(F)cc1,142
14,CCOc1ccc(N(CC(=O)NCc2ccccc2C)S(C)(=O)=O)cc1,-5.7
15,O=C(NNC(=O)c1ccccc1[N+](=O)[O-])Nc1ccccc1,-2.6
16,Cc1nc2ccc(NC(=O)c3ccc(S(=O)(=O)N4CCOCC4)cc3)cc2s1,-3.6
17,COc1cc(OC)c(/C=N/N2CCN(c3ccccc3)CC2)c(OC)c1,2.5
18,CC1=C(C(=O)OC2CCCCC2)C(c2cccc([N+](=O)[O-])c2)C2=C(CCCC2=O)N1 (stereo unspecified),13.1
19,CC(=O)Nc1ccc(S(=O)(=O)NCCC(C)C)cc1,4.5
20,CCOC(=O)/C(=C/c1ccc(O)cc1)C(C)=O,7.9
21,Cc1cc(C(=O)N(Cc2ccccc2)Cc2ccccc2)ccc1[N+](=O)[O-],32.9
22,CC(C)CC(=O)NC(C(Cl)(Cl)Cl)S(=O)(=O)c1ccccc1 (stereo unspecified),2.8
23,COc1ccc(-n2nc3cc(C)c(NC(=O)c4ccc(Cl)cc4Cl)cc3n2)cc1,-0.6

row,SMILES,displacement [%]
1,NC(=O)c1c(NC(=O)CCc2ccccc2)sc2c1CCCCCC2,15.7
2,Cc1ccccc1NC(=O)/C=C/c1cccc(C(F)(F)F)c1,12.4
3,CC(=O)c1c(-c2ccc(-c3ccccc3)cc2)nc2n(C)c3ccccc3n12,4
4,O=C(CC1Sc2ccc(C(F)(F)F)cc2NC1=O)Nc1cccc(C(F)(F)F)c1 (stereo unspecified),-1.9
5,CCOC(=O)N1CCN(C(=O)COc2ccc3ccccc3c2)CC1,12.5
6,O=C1c2ccccc2C(=O)N1/N=C/c1ccc(Oc2ccc([N+](=O)[O-])cn2)cc1,14.6
7,CCCOC(NC(=O)CC)(C(F)(F)F)C(F)(F)F,-5.3
8,CCOC(=O)C(CC)Oc1ccc2c(C)c(CC)c(=O)oc2c1 (stereo unspecified),-0.6
9,COc1ccc(CC(=O)Nc2sc3c(c2C(=O)Nc2ccccc2C)CCCC3)cc1,-11.9
10,O=C1C(=Cc2ccccc2F)C(=O)c2ccccc21,14
11,CC(C)N/C=C(/c1cc(O)ccc1O)[N+](=O)[O-],23.1
12,COc1ccc(CNc2cccc(C)c2)cc1OC,16.2
13,O=C(CCCOc1ccccc1)Nc1ccc(Cl)cc1,-0.7
14,COc1cccc(NC(=O)Cc2ccccc2[N+](=O)[O-])c1,1.8
15,CCn1c2ccccc2c2cc(CN3CCN(Cc4cccc(OC)c4)CC3)ccc21,-3
16,CC(=O)c1ccc(N2C(=O)c3ccccc3C2=O)cc1,2.1
17,Cc1cccc(NC(=O)COc2cc(C)c(Cl)c(C)c2)c1C,-6.9
18,COc1cc(N/N=C/c2ccc(Br)cc2)ncn1,-7.7
19,O=C(CN(Cc1ccccc1)S(=O)(=O)c1ccc(Br)cc1)N/N=C/c1c(O)ccc2ccccc12,9
